Some of these densities may be calculated back from excess volumes.
Experiment: xn = mol fraction of the nth substance listed
Details: 101 kPa

CCCC[n+]1ccn(C)c1.F[B-](F)(F)F + CO
mass density [kg/m3]
Details | 293.15 K | 298.15 K | 303.15 K | 308.15 K | 313.15 K | 318.15 K | 323.15 K
x2 = 0 | 1204.9 | – | – | – | – | – | 1183.7
x2 = 0.0962 | 1196.4 | – | 1189.2 | 1185.6 | 1182 | – | 1174.9
x2 = 0.1577 | 1190.2 | 1186.5 | 1182.9 | 1179.3 | 1175.7 | – | 1168.6
x2 = 0.2153 | 1183.5 | – | 1176.2 | 1172.5 | 1168.9 | 1165.3 | 1161.7
x2 = 0.2658 | – | 1173.3 | 1169.7 | 1166 | – | – | 1155.1
x2 = 0.3271 | 1168.2 | – | 1160.8 | 1157.1 | 1153.4 | 1149.7 | 1146.1
x2 = 0.426 | 1151.8 | – | 1144.3 | – | 1136.8 | – | –
x2 = 0.5483 | 1124.5 | 1120.6 | 1116.8 | 1112.9 | 1109.1 | 1105.3 | 1101.5
x2 = 0.6279 | 1101.5 | 1097.6 | 1093.6 | – | 1085.8 | – | –
x2 = 0.6765 | 1084.2 | 1080.2 | 1076.2 | 1072.2 | 1068.3 | – | –
x2 = 0.7459 | 1053.4 | 1049.4 | 1045.3 | 1041.2 | 1037.2 | – | 1029.1
x2 = 0.8013 | 1022 | – | 1013.7 | 1009.5 | 1005.4 | 1001.2 | 997.1
x2 = 0.8495 | 987.3 | 983 | 978.8 | 974.5 | 970.3 | 966.1 | –
x2 = 0.9012 | – | 935.4 | 931 | – | 922.3 | – | 913.6
x2 = 0.9514 | 877.2 | 872.7 | – | 863.7 | 859.2 | 854.6 | 850.1

CCCC[n+]1ccn(C)c1.F[B-](F)(F)F + COC(=O)OC
mass density [kg/m3]
Details | 293.15 K | 298.15 K | 303.15 K | 308.15 K | 313.15 K | 318.15 K | 323.15 K
x2 = 0 | 1205 | – | 1197.9 | 1194.3 | 1190.8 | 1187.3 | 1183.8
x2 = 0.1152 | 1200.1 | 1196.4 | 1192.8 | – | 1185.4 | – | 1178.2
x2 = 0.1845 | 1196.6 | – | 1189.1 | – | 1181.6 | 1177.9 | 1174.2
x2 = 0.2832 | 1191.7 | 1187.9 | 1184 | 1180.2 | – | 1172.5 | 1168.7
x2 = 0.402 | – | – | – | 1171.8 | 1167.8 | 1163.8 | –
x2 = 0.4979 | 1175.9 | 1171.7 | 1167.5 | – | 1159.2 | 1155 | 1150.9
x2 = 0.6015 | – | – | 1156.3 | 1151.9 | 1147.5 | 1143.1 | 1138.7
x2 = 0.6709 | 1156 | 1151.3 | 1146.7 | 1142.1 | 1137.5 | 1132.9 | 1128.3
x2 = 0.7367 | 1145.7 | 1140.8 | 1136 | 1131.1 | 1126.3 | 1121.4 | 1116.6
x2 = 0.7953 | 1134.6 | – | – | 1119.3 | 1114.2 | 1109.1 | 1104
x2 = 0.8451 | 1122.5 | – | 1111.7 | 1106.3 | 1100.9 | 1095.5 | –
x2 = 0.8949 | 1110.7 | 1105 | 1099.4 | 1093.7 | 1088 | 1082.4 | 1076.7

CCCC[n+]1ccn(C)c1.F[B-](F)(F)F + ClCCCCl
x2 = 0
Details | mass density [kg/m3]
293.15 K | 1204.9
303.15 K | 1197.8
308.15 K | 1194.2
313.15 K | 1190.7

— a compilation of properties of binary mixtures (doi:10.1007/s10953-007-9186-6)
